Experimental data reported in the RNAGym collection of RNA variant scans (doi:10.1073/pnas.2313332121).
This sample is rich in variants without activity.

B1: TPR 5TU (parent)
chain: GGAUCUUCUCGAUCUAACAAAAAAGACAAAUCUGCCACAAAGCUUGAGAGCAUCUUCGGAUGCAGAGGCGGCAGCCUUCGGUGGCGCGAUAGCGCCAACGUUCUCAACUAUGACACGCAAAACGCGUGCUCCGUUGAAUGGAGUUUAUCAUG

Variants of: B1
Experiment: polymerase ribozyme fitness, log enrichment relative to wild type (log ratio); higher = more active; in vitro selection for triplet polymerase activity
Outline: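 Only genotypes with ≥10 input reads and ≥1 read per output were kept after Illumina sequencing of input and output libraries. These libraries were PCR-built, transcribed mutants of each subunit of a heterodimeric triplet polymerase ribozyme, each put through one triplicate in vitro selection round with frozen incubation at −7 °C, gel excision of extended constructs, streptavidin-bead capture and RT-PCR. Fitness is a logarithmic ratio of genotype enrichment to wild-type enrichment, from inverse-variance-weighted replicate averages, with the logarithm in base 2.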

Variant	polymerase ribozyme fitness (log ratio)
A22C A40U C57U G58A G65A C75A G133A A138U A142C	≤ -4.2
A22C A41C A49C U53A G67U G117A C131A	≤ -4.2
A22C A41U U53C C75U	-2.58
A22C A47U C54U G86U C103A	≤ -4.2
A22C A49C G83C U90G C114U	≤ -4.2
A22C A91G C95G G141A C149A	≤ -4.2
A22C C27G G74A C76G A98G A107G U139C U144C	≤ -4.2
A22C C27U G50C G80U U144G	≤ -4.2
A22C C27U U44A A47C U82C C95U A142C	≤ -4.2
A22C C35A G88C	≤ -4.2
A22C C35U A49U A66U C103G	≤ -4.2
A22C C36A C75A C76G G83C G117C G141U A150G	≤ -4.2
A22C C38U G81U C87G U144A	≤ -4.2
A22C C51A G58C G68A G86C A110U A115G	≤ -4.2
A22C C69A G80C C85U A89U A142G	≤ -4.2
A22C C85A U104G	≤ -4.2
A22C C85U G140A	≤ -4.2
A22C C87G	≤ -4.2
A22C G34C U55G A91C G92U	≤ -4.2
A22C G42C U53A C76U G88U G94U	≤ -4.2
A22C G46A C51A	≤ -4.2

Variant	polymerase ribozyme fitness (log ratio)
A22C G46C G83C	-3.01
A22C G48U A52C U53A G58U A97U A98U	≤ -4.2
A22C G48U U53A C87A	≤ -4.2
A22C G59C G83A A89C	-1.16
A22C U44A C87U C103U	≤ -4.2
A22C U53A G83U C108G A137G U139A	≤ -4.2
A22C U53A U56A A73G	-1.97
A22C U53G G94A A119G	-1.81
A22C U61A G88A A107C A110C C123G G140A	≤ -4.2
A22C U61G G65U C95U A121G G140A	≤ -4.2
A22C U144G	0.903
A22G A23C C51U G81A C93U C118G U134C A150C	≤ -4.2
A22G A24U C63G	2.39
A22G A26G A40G C76U G136U U144C	≤ -4.2
A22G A29C U55G C75G G88C G126A A150C	≤ -4.2
A22G A29U U31A C85U U145A	≤ -4.2
A22G A29U U77C C85G C95U C103U C114G C125U	≤ -4.2
A22G A37C U44A G84C C85U C96U A98G G136A C149G A150U	≤ -4.2
A22G A39C G81U G92A C103A	≤ -4.2
A22G A39C U55A U77G G80C C85U C125G G141A	≤ -4.2
A22G A39G U61A G88C A121C U146G	≤ -4.2

Variant	polymerase ribozyme fitness (log ratio)
A22G A40G A52C C75U C99A A107G C108U U134A	≤ -4.2
A22G A41C G50A C95U U101G	-1.78
A22G A49G U55G G67A C93G G100A G128U U135A A137G	≤ -4.2
A22G A52C C75A A91C A115G C129U	≤ -4.2
A22G A52C U56A C85A G128C A150G	≤ -4.2
A22G A66C C75A C76U U90G C93A U101G	≤ -4.2
A22G A66C G84A U148G	≤ -4.2
A22G A106G A122C G124U	-0.81
A22G C27A G80U A91G C131G U139G	≤ -4.2
A22G C27U A30G A121G U139A	≤ -4.2
A22G C32U C93A A107C	≤ -4.2
A22G C36G G84A	≤ -4.2
A22G C38A C54G U55A G92C C123U	≤ -4.2
A22G C51A U56A G59C G86A C105G A115U G141C	≤ -4.2
A22G C51U U78G C95U A107G U146C	≤ -4.2
A22G C54U G58A G59A C103G	-1.91
A22G C76U C85A C87U G117A	≤ -4.2
A22G C85G A150G	-3.09
A22G C85G G133A	≤ -4.2
A22G C93U	-0.637
A22G C108U	-4.08

Variant	polymerase ribozyme fitness (log ratio)
A22G C132G	-3.69
A22G C132U	-0.512
A22G G34A G50C G68A U101G G133U	≤ -4.2
A22G G34C A66U G94U G100C A110C G126A U139C	≤ -4.2
A22G G50U C51U C93G	≤ -4.2
A22G G58A A120G C123A C129G	-3.06
A22G G68A	≤ -4.2
A22G G70U C87A U109G A138U C149A	≤ -4.2
A22G G83A C105A	-3.83
A22G G84A A91C C103G U104G	≤ -4.2
A22G G88A C96U	≤ -4.2
A22G G124A	0.539
A22G U31C U44A C95G A150G	≤ -4.2
A22G U31G C54U C96G A115G C123G A137C	≤ -4.2
A22G U33A A49C G68A C79G C85U	≤ -4.2
A22G U33C A39C G46C C79A G81A C87A C105U C114A A137G	≤ -4.2
A22G U33G	-3.24
A22G U45A A60G C79G G92A A115C	≤ -4.2
A22G U130A	-1.59
A22U A23G G50C G74C	≤ -4.2
A22U A23U C54G C87A	≤ -4.2
